# This list was built around the results that the source calls inconclusive (neither active nor inactive); the mix of calls is not that of the screen. Where the call is inconclusive, the potency comes from a doubtful curve fit. The source made the active and inactive calls. Calls follow the shape of the dose curve; as a rule, active = well fitted cell-killing curve with a large enough effect; inconclusive = small, poorly fitted or top-dose-only effect, or effect the other way; inactive = flat fitted curve, though single readings scatter.
# Tested on: CAOV3
# Test: Primary qHTS to identify gynecologic anti-cancer compounds using libraries of approved drugs and bioactive compounds (AID 1345084); also: nearly all actives have a fitted effect of over 55% in size
# Details: Gynecologic cancer cell panel viability, ATPlite luminescence, 48 h; series mostly up to 57.5 µM; activity change, negative = cytotoxicity: at the top concentration
# Procedure, shortened: (§1)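 Measured: luminescence after ATPlite addition (15 min, RT). Exposure: 48 h, 37 C, 5% CO2.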
# % is scaled to controls: 0 for no effect and ±100 for the full control effect; potency is read from the fitted curve at half-maximal effect; tags tell the direction and shape of the fitted curve.
SMILES,Potency,"activity change, negative = cytotoxicity"
CC(=O)NC1=NN(C(C)=O)C(C)(c2ccccc2)S1 (centres undefined),"inconclusive: 28.2 µM [cytotoxic, single point]",
CNC(=O)c1cccc(-c2ccc3c(N4CCOC[C@@H]4C)nc(N4CCOC[C@@H]4C)nc3n2)c1,"inconclusive: 8.91 µM [cytotoxic, partial curve]",
Nc1ncnc2c1nc(N)n2[C@@H]1O[C@H](CO)[C@@H](O)[C@H]1O,active: 1.26 µM,
Nc1cccc(CNC(=O)c2ccc(Oc3ccc(OCc4cccc(F)c4)cc3)nc2)c1,"inconclusive: 5.01 µM [cytotoxic, partial curve, poor fit]",
C=C(CCC1=C(C)[C@H]2[C@H](CC3[C@@H]4CC=C5C[C@@H](O)C[C@@H](O)[C@]5(C)C4[C@H](O)C[C@@]32C)O1)CO[C@@H]1O[C@H](CO)[C@@H](O)[C@H](O)[C@H]1O (some centres undefined),active: 3.55 µM,
C=C1C(=O)O[C@H]2/C=C(/C)[C@@H](OC(C)=O)C/C=C(\C)C[C@@H](OC(=O)/C(=C/C)COC(=O)/C(=C/C)CO)[C@@H]12,active: 8.91 µM,
CNc1cccc(CCOc2ccc3c(c2)CN(CC(F)(F)F)C(=O)[C@H](CC(=O)O)C3)n1,,inactive: -27.2%
Cc1ccccc1-n1c([C@H](C)Nc2nc(N)nc3nc[nH]c23)nc2cccc(C)c2c1=O,"inconclusive: 35.5 µM [cytotoxic, partial curve, poor fit]",
C/C1=C\CCC2=CC(OC2=O)C(C)(C)/C=C/C1=O (centres undefined),"inconclusive: 31.6 µM [cytotoxic, single point]",
COc1cc2nc(N3CCN(C)CC3)nc(NC3CCN(Cc4ccccc4)CC3)c2cc1OC,"inconclusive: 39.8 µM [cytotoxic, single point]",
CC(=O)O[C@H]1CC(C)(C)CC2[C@]13CO[C@@]21CCC2[C@@]4(C)CC[C@H](O[C@@H]5OC[C@H](O[C@@H]6O[C@H](CO)[C@@H](O)[C@H](O)[C@H]6O[C@@H]6OC[C@@H](O[C@@H]7O[C@H](CO)[C@@H](O)[C@H](O)[C@H]7O)[C@H](O)[C@H]6O)[C@H](O)[C@H]5O[C@@H]5O[C@H](CO)[C@@H](O)[C@H](O)[C@H]5O)[C@@](C)(CO)C4CC[C@@]2(C)[C@]1(C)C[C@H]3O (some centres undefined),"inconclusive: 3.55 µM [cytotoxic, single point]",
CCOC(=O)c1cnn(-c2ccccc2)c1NC(=O)c1cc2nc(-c3ccco3)cc(C(F)(F)Cl)n2n1,,inactive: -2.36%
CCN(CC)CCOc1ccc2c(c1)C(=O)c1cc(OCCN(CC)CC)ccc1-2,"inconclusive: 35.5 µM [cytotoxic, single point]",
CN1CCc2cccc3c2[C@H]1Cc1ccc(O)c(O)c1-3,"inconclusive: 25.1 µM [cytotoxic, single point]",
N#CC(c1ccnc(OCc2ccc(CN3CCOCC3)cc2)n1)c1nc2ccccc2s1 (centres undefined),"inconclusive: 14.1 µM [cytotoxic, partial curve, poor fit]",
Cc1cc(C)c(CNC(=O)c2cc(-c3ccc(CN4CCOCC4)cc3)cc3c2cnn3C2CCCC2)c(=O)[nH]1,"inconclusive: 4.47 µM [rising, partial curve, poor fit]",
CC(=O)O[C@@](C)(C(=O)/C=C/C(C)(C)O)[C@H]1[C@H](O)C[C@@]2(C)[C@@H]3CC=C4[C@@H](C=C(O)C(=O)C4(C)C)[C@]3(C)C(=O)C[C@]12C,active: 0.282 µM,
Cc1cc(C)c(Nc2ccnc(Nc3ccc(C#N)cc3)n2)c(C)c1,"inconclusive: 39.8 µM [cytotoxic, partial curve, poor fit]",
C=C1C(=O)O[C@@H]2C[C@H](C)[C@@H]3CC(=O)C(C)=C3C[C@H]12,"inconclusive: 15.8 µM [cytotoxic, partial curve, poor fit]",
CCNC(=O)C#Cc1ccc2c(C(=Nc3ccc(CN(C)C)cc3)c3ccccc3)c(O)[nH]c2c1,"inconclusive: 2.51 µM [cytotoxic, partial curve, poor fit]",
CC(=O)NCC(=O)N1C2CCC1c1cc(Nc3ncc(C(F)(F)F)c(NC4CCC4)n3)ccc12 (centres undefined),"inconclusive: 5.01 µM [cytotoxic, full curve]",
CN1CCN(c2ccc(C(=O)Nc3n[nH]c4ccc(Cc5cc(F)cc(F)c5)cc34)c(NC3CCOCC3)c2)CC1,"inconclusive: 39.8 µM [cytotoxic, single point]",

# Tested on: CASKI
# Test: as above
# Details: Gynecologic cancer cell panel viability, ATPlite luminescence, 48 h; activity change, negative = cytotoxicity: at 57.5 µM (top of the series)
# Procedure, shortened: as §1
SMILES,Potency,"activity change, negative = cytotoxicity"
CC(=O)NC1=NN(C(C)=O)C(C)(c2ccccc2)S1 (centres undefined),"inconclusive: 7.94 µM [cytotoxic, full curve]",
CNC(=O)c1cccc(-c2ccc3c(N4CCOC[C@@H]4C)nc(N4CCOC[C@@H]4C)nc3n2)c1,"inconclusive: 12.6 µM [cytotoxic, partial curve]",
Nc1ncnc2c1nc(N)n2[C@@H]1O[C@H](CO)[C@@H](O)[C@H]1O,active: 3.16 µM,
COc1ccc(F)cc1-c1cc(NC(=O)[C@@H]2CCCNC2)ncc1Cl,active: 0.891 µM,
CC(CCC1(O)OC2CC3C4CC=C5CC(O[C@@H]6O[C@H](CO)[C@@H](O[C@@H]7O[C@@H](C)[C@H](O)[C@@H](O)[C@H]7O)[C@H](O)[C@H]6O[C@@H]6O[C@@H](C)[C@H](O)[C@@H](O)[C@H]6O)CCC5(C)C4CCC3(C)C2C1C)CO[C@@H]1O[C@H](CO)[C@@H](O)[C@H](O)[C@H]1O (some centres undefined),,inactive: 1.54% [at 11.6 µM]
C=C(CCC1=C(C)[C@H]2[C@H](CC3[C@@H]4CC=C5C[C@@H](O)C[C@@H](O)[C@]5(C)C4[C@H](O)C[C@@]32C)O1)CO[C@@H]1O[C@H](CO)[C@@H](O)[C@H](O)[C@H]1O (some centres undefined),active: 3.16 µM,
C=C1C(=O)O[C@H]2/C=C(/C)[C@@H](OC(C)=O)C/C=C(\C)C[C@@H](OC(=O)/C(=C/C)COC(=O)/C(=C/C)CO)[C@@H]12,"inconclusive: 17.8 µM [cytotoxic, single point]",
CC(Nc1ncnc2nc[nH]c12)c1cc2cccc(Cl)c2c(=O)n1-c1ccccc1 (centres undefined),"inconclusive: 14.1 µM [cytotoxic, partial curve]",
Cc1ccccc1-n1c([C@H](C)Nc2nc(N)nc3nc[nH]c23)nc2cccc(C)c2c1=O,active: 31.6 µM,
CC1CCN(C(=O)CC#N)CC1N(C)c1ncnc2[nH]ccc12 (centres undefined),,inactive: -2.07%
C/C1=C\CCC2=CC(OC2=O)C(C)(C)/C=C/C1=O (centres undefined),"inconclusive: 39.8 µM [cytotoxic, single point]",
COc1cc2nc(N3CCN(C)CC3)nc(NC3CCN(Cc4ccccc4)CC3)c2cc1OC,"inconclusive: 25.1 µM [cytotoxic, single point]",
CCN(CC)CCOc1ccc2c(c1)C(=O)c1cc(OCCN(CC)CC)ccc1-2,"inconclusive: 39.8 µM [cytotoxic, single point]",
CN1CCc2cccc3c2[C@H]1Cc1ccc(O)c(O)c1-3,,inactive: -9.02%
N#CC(c1ccnc(OCc2ccc(CN3CCOCC3)cc2)n1)c1nc2ccccc2s1 (centres undefined),"inconclusive: 11.2 µM [cytotoxic, partial curve]",
CC(=O)O[C@@](C)(C(=O)/C=C/C(C)(C)O)[C@H]1[C@H](O)C[C@@]2(C)[C@@H]3CC=C4[C@@H](C=C(O)C(=O)C4(C)C)[C@]3(C)C(=O)C[C@]12C,active: 4.47 µM,
Cc1cc(C)c(Nc2ccnc(Nc3ccc(C#N)cc3)n2)c(C)c1,"inconclusive: 39.8 µM [cytotoxic, single point]",
C=C1C(=O)O[C@@H]2C[C@H](C)[C@@H]3CC(=O)C(C)=C3C[C@H]12,"inconclusive: 39.8 µM [cytotoxic, single point]",
CCNC(=O)C#Cc1ccc2c(C(=Nc3ccc(CN(C)C)cc3)c3ccccc3)c(O)[nH]c2c1,"inconclusive: 0.501 µM [cytotoxic, full curve]",
CC(=O)NCC(=O)N1C2CCC1c1cc(Nc3ncc(C(F)(F)F)c(NC4CCC4)n3)ccc12 (centres undefined),"inconclusive: 17.8 µM [cytotoxic, partial curve, poor fit]",
Cc1c(NC(=O)OCC2COCCN2)cn2ncnc(Nc3ccc4c(cnn4Cc4cccc(F)c4)c3)c12 (centres undefined),"inconclusive: 5.62 µM [cytotoxic, partial curve, poor fit]",
CN1CCN(c2ccc(C(=O)Nc3n[nH]c4ccc(Cc5cc(F)cc(F)c5)cc34)c(NC3CCOCC3)c2)CC1,"inconclusive: 39.8 µM [cytotoxic, partial curve, poor fit]",
